Results published in paper PMC6794377.
Changes are numbered by the printed parent chain. No constants are given. Whether binding was seen depends on the method and setting. Binding seen in cells or lysates may run through a third protein. Some entries that bind do so weakly or less than the wild type. For some of these results: Tags and fused reporters may be left off the sequences shown.

Amino acid sequences for entries named in this document (tags omitted).
UniProt P07814: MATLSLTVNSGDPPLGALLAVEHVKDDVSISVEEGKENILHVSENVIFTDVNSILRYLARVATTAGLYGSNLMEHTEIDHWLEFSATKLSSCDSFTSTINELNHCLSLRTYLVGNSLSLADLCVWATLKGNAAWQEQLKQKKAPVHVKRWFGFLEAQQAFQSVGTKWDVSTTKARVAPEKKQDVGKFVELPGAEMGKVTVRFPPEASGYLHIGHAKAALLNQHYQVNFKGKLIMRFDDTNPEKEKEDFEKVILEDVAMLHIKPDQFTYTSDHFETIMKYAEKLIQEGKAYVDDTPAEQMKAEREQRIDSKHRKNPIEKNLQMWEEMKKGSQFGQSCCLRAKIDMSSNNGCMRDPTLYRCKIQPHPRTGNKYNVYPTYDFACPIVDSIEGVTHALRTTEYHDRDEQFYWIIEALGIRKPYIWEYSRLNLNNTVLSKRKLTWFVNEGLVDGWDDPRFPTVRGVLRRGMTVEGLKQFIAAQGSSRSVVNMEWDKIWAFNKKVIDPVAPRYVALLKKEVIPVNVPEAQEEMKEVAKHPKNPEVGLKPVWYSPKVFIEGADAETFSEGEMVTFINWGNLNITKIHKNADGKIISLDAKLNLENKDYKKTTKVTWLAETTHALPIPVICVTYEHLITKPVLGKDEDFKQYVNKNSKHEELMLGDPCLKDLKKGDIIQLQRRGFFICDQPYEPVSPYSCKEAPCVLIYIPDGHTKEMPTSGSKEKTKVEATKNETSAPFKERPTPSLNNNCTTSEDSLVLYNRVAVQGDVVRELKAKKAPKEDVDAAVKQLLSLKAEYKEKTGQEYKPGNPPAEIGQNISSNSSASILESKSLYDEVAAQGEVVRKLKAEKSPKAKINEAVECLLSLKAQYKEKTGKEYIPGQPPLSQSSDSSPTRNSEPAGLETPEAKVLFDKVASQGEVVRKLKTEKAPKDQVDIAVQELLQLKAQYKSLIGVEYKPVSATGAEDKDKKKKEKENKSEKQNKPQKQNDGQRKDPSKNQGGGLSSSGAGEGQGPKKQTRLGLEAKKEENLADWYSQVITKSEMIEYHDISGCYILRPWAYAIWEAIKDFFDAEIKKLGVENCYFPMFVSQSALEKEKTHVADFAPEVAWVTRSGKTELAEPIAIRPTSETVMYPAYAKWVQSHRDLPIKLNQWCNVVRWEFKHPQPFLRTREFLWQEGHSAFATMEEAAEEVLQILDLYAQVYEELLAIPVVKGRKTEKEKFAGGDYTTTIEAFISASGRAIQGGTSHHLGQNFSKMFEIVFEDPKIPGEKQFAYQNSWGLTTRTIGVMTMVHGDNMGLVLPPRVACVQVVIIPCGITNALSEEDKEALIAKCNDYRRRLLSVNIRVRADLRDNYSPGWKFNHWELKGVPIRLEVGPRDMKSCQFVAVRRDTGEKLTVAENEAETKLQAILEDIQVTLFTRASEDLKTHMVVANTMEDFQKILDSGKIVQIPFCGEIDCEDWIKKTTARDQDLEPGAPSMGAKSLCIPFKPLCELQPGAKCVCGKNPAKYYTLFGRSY

Tests used:
[1] = target: T1, native hThrRS-L, endogenous in HEK293T (human (endogenous in HEK293T)) (UniProt A2RTX5); test: co-IP; native HEK293T cell lysate, IP with anti-hThrRS-L antibodies; western blotting
T1 sequence: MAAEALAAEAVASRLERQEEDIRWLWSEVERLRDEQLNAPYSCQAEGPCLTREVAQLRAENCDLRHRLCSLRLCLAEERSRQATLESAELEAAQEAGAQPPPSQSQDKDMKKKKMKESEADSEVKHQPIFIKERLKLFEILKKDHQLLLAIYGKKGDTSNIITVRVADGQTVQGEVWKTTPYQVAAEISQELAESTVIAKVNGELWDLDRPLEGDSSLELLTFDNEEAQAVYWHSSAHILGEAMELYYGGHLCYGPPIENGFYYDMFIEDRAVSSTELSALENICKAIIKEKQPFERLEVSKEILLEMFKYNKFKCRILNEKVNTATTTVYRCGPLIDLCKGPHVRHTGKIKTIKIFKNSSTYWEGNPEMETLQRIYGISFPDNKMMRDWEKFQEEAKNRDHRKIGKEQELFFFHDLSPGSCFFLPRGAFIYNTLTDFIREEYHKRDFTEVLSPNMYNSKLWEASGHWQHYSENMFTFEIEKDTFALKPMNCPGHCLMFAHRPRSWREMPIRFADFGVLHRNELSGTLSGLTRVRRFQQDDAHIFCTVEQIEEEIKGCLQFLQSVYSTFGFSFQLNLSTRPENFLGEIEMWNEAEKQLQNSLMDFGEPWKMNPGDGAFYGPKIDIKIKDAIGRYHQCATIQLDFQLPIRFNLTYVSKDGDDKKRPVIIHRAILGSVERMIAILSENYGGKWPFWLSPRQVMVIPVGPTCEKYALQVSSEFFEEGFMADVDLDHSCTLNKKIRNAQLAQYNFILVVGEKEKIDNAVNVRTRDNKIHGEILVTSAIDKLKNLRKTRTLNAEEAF

[2] = target: T2, hThrRS-L-S453D with a C-terminal FLAG tag (human) (UniProt A2RTX5); test: co-IP; FLAG-tagged hThrRS-L or mutant overexpressed in HEK293T; IP with anti-FLAG, Dynabeads protein G, 4°C; endogenous partners detected by western blotting
T2 sequence: T1 sequence with S453D

[3] = target: T3, hThrRS-L-T163D with a C-terminal FLAG tag (human) (UniProt A2RTX5); test: as above
T3 sequence: T1 sequence with T163D

[4] = target: T4, native p43 (AIMP1), endogenous in human cells (human (endogenous in HEK293T and HeLa)) (UniProt Q12904); test: co-IP; transfected HEK293T lysate, IP with anti-p43 antibodies; western blotting
T4 sequence: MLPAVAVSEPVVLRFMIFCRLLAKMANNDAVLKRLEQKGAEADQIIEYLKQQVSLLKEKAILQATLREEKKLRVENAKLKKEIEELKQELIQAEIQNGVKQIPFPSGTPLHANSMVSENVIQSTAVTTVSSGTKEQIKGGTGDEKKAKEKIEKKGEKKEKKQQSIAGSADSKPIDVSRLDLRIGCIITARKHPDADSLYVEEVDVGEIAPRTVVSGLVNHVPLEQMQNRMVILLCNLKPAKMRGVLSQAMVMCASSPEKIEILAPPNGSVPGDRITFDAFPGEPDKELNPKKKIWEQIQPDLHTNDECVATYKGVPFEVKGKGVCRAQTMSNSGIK

Measured: binding

GluProRS, endogenous in HEK293T (from UniProt P07814 1-1512) (enzyme)
binds: all assays above
